Results taken from PubChem BioAssay AID1963576 (National Center for Advancing Translational Sciences (NCATS), 2024).
In all, about 46,000 compounds went through this assay and about 60 (0.1%) were called active. Not shown: some 3% with an inconclusive outcome. The call rests on the fitted dose curve; in most records, active means well fitted inhibition curve with a large enough effect; inconclusive means small, poorly fitted or top-dose-only effect; inactive means no such curve, though single readings can be large or run the other way. This is one part of the list.

Experiment: Primary qHTS assay for Inhibitors of ovarian cancer metastasis using an organotypic tumor microenvironment (TME) model. Further: nearly all actives have a fitted effect of over 65% in size.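 On activity change, negative = inhibition: plate controls were DMSO wells for no effect and tomatine positive control wells for full effect.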
Conditions: SKOV3ip1-GFP adhesion/invasion on 3D omental model, fluorescence; series mostly up to 45.8 µM; activity change, negative = inhibition: at the top concentration
How it was run: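 Adhesion/invasion was scored as fixed GFP-labeled SKOV3ip1 cell counts (488/509 nm), normalized to DMSO and tomatine controls. Cancer cells in serum-free medium, with four compound doses (0.36-46 umol/L), sat 2 hr at RT then 16 hr at 37 C on a 48 hr fibroblast/mesothelial/ECM culture.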

outcome, inactive:
CCc1ccc(NC(=O)CC2C(=O)N(c3cccc(C)c3)C(=O)N2Cc2ccco2)cc1 (stereo not drawn)
CC(=O)N1CCCC1c1nc2ccccc2n1Cc1ccccc1C (stereo not drawn)
COc1ccc(Cl)cc1NC(=O)CSc1cn(CC(=O)N2CCCCCC2)c2ccccc12
Cc1ccc(NC(=O)Cn2c(=O)n(CCC(=O)NCc3ccccc3Cl)c(=O)c3ccccc32)cc1
CC(C)(C)c1ccc(C(=O)N2CCC(c3nc4ccccc4o3)CC2)cc1
Cc1ccc(-n2c(=O)c3c(c4cc(C)ccc4n3C)n(CC(=O)NCc3ccccc3)c2=O)cc1
CCN1CCc2nc3sc(C(=O)c4ccc(F)cc4)c(N)c3cc2C1
Cc1ccccc1NC(=O)c1c(C)oc2ccc(O)c(CN3CCN(C)CC3)c12
COc1ccc(NC(=O)Cn2c(=O)ccc3cc(S(=O)(=O)N4CCCC4)ccc32)cc1Cl
COc1ccc(CNC(=O)Cn2c(=O)cc(-c3ccccc3)c3c(C)nn(C)c32)cc1
CCOc1ccccc1CNC(=O)c1cccn1-c1nnc(N2CCCC2)s1
O=C(CCOc1ccccc1)N(Cc1cccnc1)c1nc2c(F)cccc2s1
O=C(Nc1ccc(Cl)c(C(F)(F)F)c1)C1CCN(S(=O)(=O)c2cccc3nonc23)CC1
CN1c2ccc(Cl)cc2-c2nc(SCC(=O)NCc3ccccc3)ncc2S1(=O)=O
O=C(NCc1ccccc1F)C1CCN(c2nn3cc(-c4ccc(F)cc4)nc3s2)CC1
O=C(NC1CC(=O)N(c2cccc(F)c2)C1)c1cc2ccccc2o1 (stereo not drawn)
Cc1ccc(Cn2c(C(=O)O)c(CNC3CCCC3)c3ccc(C)cc32)cc1
Cc1cccc(Cn2cc(S(=O)(=O)c3cccc(C)c3)c(=O)c3cc(F)c(N4CCOCC4)cc32)c1
Cc1ccc(CNC(=O)CCCn2c(=O)[nH]c3ccc(Br)cc3c2=O)cc1
Cc1ccc(-n2c(=O)c3c(cnn3C)n(CC(=O)Nc3ccccc3C)c2=O)cc1

Activity change, negative = inhibition, inactive:
CCc1ccccc1NC(=O)N1CCN(C(=O)c2nsc3ccccc23)CC1 -29.2%
COc1cc(NC(=O)CC(C)n2nc(C)cc2C)cc(OC)c1 (stereo not drawn) 2.57%
CC1CCN(S(=O)(=O)c2nnc(NC(=O)c3cccc(Br)c3)s2)CC1 -9.08%
CCS(=O)(=O)N1CCc2cc(C(=O)NCCc3ccc(OC)cc3)ccc21 -6.07%
O=C(NCCc1ccccc1)C(=O)NCC(c1ccc2c(c1)OCO2)N1CCOCC1 (stereo not drawn) -1.48%
CCNc1nc(NC(C)(C)C)nc(Oc2ccc(=O)n(C)n2)n1 5.33%
COc1cc(NC(=O)C(CCSC)NS(=O)(=O)c2ccc3c(c2)oc(=O)n3C)cc(OC)c1 (stereo not drawn) 3.36%
Cc1ccc(-c2nnc3ccccc3c2C(=O)Nc2ccccc2F)cc1 -17.9%
CCOc1ccccc1C(=O)N(Cc1ccccc1F)C1CCS(=O)(=O)C1 (stereo not drawn) -14.4%
O=C(CCC1N=C2c3ccccc3N=C(SCc3ccccc3F)N2C1=O)NCc1ccc(F)cc1 (stereo not drawn) 4.62%
COc1ccc(NC(=O)c2c(NCc3cccc(OC)c3)sc3c2CCCC3)cc1 -6.92%
COc1ccccc1NC(=O)CSc1nc(-c2ccccc2F)nc2cc(=O)[nH]n12 2.23%
COc1ccc(CCNc2nc3c(-c4cccc(C)c4)nnn3c3ccccc23)cc1OC -7.51%
CC1=C(c2ccc(Cl)cc2)S(=O)(=O)N=C1N1CCC(C(=O)NCc2ccccc2F)CC1 0.397%
COc1ccc(-c2onc(C)c2C)cc1S(=O)(=O)NCC1CCN(Cc2cccc(F)c2)CC1 2.39%
CC(C)(C)c1ccc(-c2nc(SCC(=O)Nc3ccccc3F)n3[nH]c(=O)cc3n2)cc1 -0.366%
CC(CCc1ccc(O)cc1)NCCc1ccc(O)c(O)c1 (stereo not drawn) -14.9%
CCc1ccc2oc(C(=O)Nc3ccccc3C(=O)OC)cc(=O)c2c1 4.81%
Clc1cccc(-n2ncc3c(NCCCn4ccnc4)ncnc32)c1 3.76%
Cc1cccc(N2CCN(C(=O)Cn3nc(Cc4cccnc4)c4ccccc4c3=O)CC2)c1C -8.35%
COc1ccc(S(=O)(=O)N(CC(=O)Nc2cccnc2)c2ccc(Cl)cc2)cc1 -20.8%
COc1ccc(CNC(=O)COCc2cc(-c3cccs3)on2)cc1 -1.62%
O=C(O)Cn1ccc2cc(S(=O)(=O)N3CCCCCC3)ccc21 4.61%
CCCCn1c(NCc2ccc(N(C)C)cc2)nc2ccccc21 4.59%
Cc1ccccc1CSc1cn(CC(=O)N2CCCCCC2)c2ccccc12 -4.96%
Cc1cccn2c(=O)c(C(=O)NCCc3ccc(S(N)(=O)=O)cc3)c(O)nc12 16.6%
CCCNS(=O)(=O)Nc1ncnc(OCCOc2ncc(Br)cn2)c1-c1ccc(Br)cc1 -13.2%
CC1C(=O)N2CCCc3cc(S(=O)(=O)N4CCC(C(N)=O)CC4)cc1c32 (stereo not drawn) -3.12%
COc1ccccc1NC(=O)c1oc2ccccc2c1NC(=O)C1CCCCC1 -0.917%
CCCSCCCNC(=O)c1ccc2c(c1)sc1nc(-c3ccc(OCC)cc3)cn12 2.46%
Cc1ccc2cc(CN(C(=O)c3cccc(Cl)c3)c3ccccc3)c(=O)[nH]c2c1 0.396%
Cc1ccccc1CSc1nc2ccsc2c(=O)n1CCC(C)C 4.23%
COc1cccc(CNC(=O)c2cnc(N3CCCCC3)c3ccccc23)c1 -12.7%
COc1ccccc1Nc1nn2c(=O)c3ccc(C(=O)NCCC4=CCCCC4)cc3nc2s1 12.8%
COc1ccc(C)cc1NC(=O)C(Cc1ccccc1)NS(=O)(=O)c1cccs1 (stereo not drawn) 2.27%
Cc1cc(C)cc(-n2c(SCC(N)=O)nc3c([nH]c4ccccc43)c2=O)c1 -9.56%
O=C(Nc1ccccc1C(F)(F)F)N1CCC(CN2CCc3ccccc3C2)CC1 4.45%
CCC(=O)N1CCc2cc(Br)cc(S(=O)(=O)CCC(=O)NCc3cccc(OC)c3)c21 3.88%
Cc1ccc2nc(-c3cccc(NC(=O)c4cccc5ccccc45)c3)oc2c1 -8.01%
COc1ccc(Nc2ncnc3c2cnn3-c2ccc(C)cc2)cc1Cl -12.8%
COCCNc1oc(/C=C/c2ccc(F)cc2)nc1C#N 2.17%
CCOC(=O)c1ccc(CN(Cc2ccccc2C)S(=O)(=O)c2ccc(F)c(C)c2)cc1 -4.16%
CCOc1ccc(-n2c(SCC(=O)NC3CCCCC3)nc3c([nH]c4ccccc43)c2=O)cc1 -5.58%
